Measurements taken from PubChem BioAssay AID485313 (National Center for Advancing Translational Sciences (NCATS), 2010).
Screen size: about 320,000 compounds; about 7,600 (2.4%) were called active. Inconclusive results, whose numbers are uncertain, are shown with a selection of clear calls. Calls come from the whole dose curve; as a rule, active = well fitted activation curve with a large enough effect; inconclusive = small, poorly fitted or top-dose-only effect; inactive = no such curve, though single readings can be large or run the other way. Potencies of inconclusive entries are left out as doubtful fits.

Test: qHTS Assay for NPC1 Promoter Activators; note: nearly all actives have a fitted effect of over 60% in size;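 for activation: reporter is driven by a mutant NPC1 promoter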
Conditions: Huh7 NPC1 promoter luciferase reporter, 24 h; series mostly up to 9.22 µM
Outline: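 In 1536-well qHTS, Huh7 cells harboring an NPC1 promoter–luciferase construct received compound for 24 h; activation was quantified by luminescence following luciferase reagent addition.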
Potency is the fitted concentration of half-maximal effect; tags give direction and shape of the fitted curve.

| Compound | Potency |
| --- | --- |
| Cc1ccc2c(c1)Sc1c(ccc3ccccc13)N2 | inconclusive [activator, full curve] |
| N#Cc1cnc(Nc2ccc(F)cc2)nc1N | inconclusive [activator, single point] |
| Cc1ccc(C)c(NC(=O)c2cc(-c3ccccc3O)n[nH]2)c1 | inconclusive [activator, partial curve] |
| O=C(Cc1ccccc1F)Nc1ccc(SC(F)F)cc1 | active: 3.98 µM |
| C=CCn1c(SCC(N)=O)nc2sc3c(c2c1=O)CCC3 | inactive |
| COc1ccc2c(c1)CC/C2=N\OC(=O)c1ccccc1C | inconclusive [activator, single point] |
| CC(C)NC(=O)c1ccccc1NC(=O)C1CCCO1 (stereo not drawn) | inactive |
| Cc1ccc(C(=O)C(C)OC(=O)C2CCN(c3ccc(C(F)(F)F)cn3)CC2)cc1C (stereo not drawn) | inactive |
| CSc1ccccc1OCc1cc(C(=O)NCCC2CCCCO2)no1 (stereo not drawn) | inconclusive [activator, single point] |
| CS(=O)(=O)N1CCN(c2ccc(NC(=S)NC(=O)c3cccs3)cc2)CC1 | inactive |
| O=C(CSc1nc(O)c(Cc2ccccc2F)c(=O)[nH]1)N1CCCCCC1 | inactive |
| CCCCOc1ccc(-c2cc(C(=O)NNC(=S)NCC)c3ccccc3n2)cc1 | inconclusive [activator, partial curve] |
| CC(C)(C)c1ccc(S(=O)(=O)CCc2ccccn2)cc1 | inconclusive [activator, partial curve] |
| O=C(O)CCC(=O)Nc1ccccc1C(=O)NCCc1ccccc1 | inconclusive [activator, single point] |
| O=C(NC1CCCCC1)c1cc(-c2cccs2)on1 | active: 3.16 µM |
| O=S(=O)(c1ccc(Oc2ccc(Cl)cc2)c(S(=O)(=O)N2CCCCC2)c1)N1CCCCC1 | inactive |
| CCN(CC)c1ccc(C(=O)NNC(=O)c2cccn2C)cc1 | inconclusive [activator, partial curve] |
| CC(C)COc1cccc(-c2cc(C(=O)Nc3ccon3)c3ccccc3n2)c1 | inactive |
| Cc1ccc(NC(=O)c2cccc3cccnc23)cc1 | active: 2.51 µM |
| O=C(c1ccco1)N1CCCC(Nc2ccc3c(c2)OCCO3)C1 (stereo not drawn) | inconclusive [activator, partial curve] |
| COc1ccccc1NC(=O)c1cnc2n(c1=O)CCS2 | inconclusive [activator, partial curve] |
| Cn1c(-c2ccc(-c3ccccc3)cc2)c[nH]c1=S | inconclusive [activator, single point] |
| Cn1c(NC(=O)CCc2ccccc2)cc(=O)n(C)c1=O | inconclusive [activator, single point] |
| Cc1cc(C)nc(SCc2csc(-c3ccccc3)n2)n1 | active: 2.51 µM |

| Compound | Potency |
| --- | --- |
| O=c1/c(=C\c2ccc3c(c2)OCO3)sc2n1CCCN=2 | active: 0.891 µM |
| CC(C)(C)c1ccc(OCC(O)CSc2ncn[nH]2)cc1 (stereo not drawn) | inconclusive [activator, partial curve] |
| O=C1N(Cc2cccc(Cl)c2)C[C@@H]2C[C@@H](c3cccn3-c3nccs3)N3CCC[C@@]123 | inconclusive [activator, single point] |
| S=C(Nc1ccc(Cl)cc1)c1nc2ccccc2[nH]1 | active: 3.16 µM |
| Cc1nc2cc(NCc3cccs3)ccc2n1C | inconclusive [activator, partial curve] |
| COc1ccc(/C=N/NC(=O)c2ccoc2C)cc1OC | inconclusive [activator, single point] |
| CC(C)CC(=O)O/N=C1\C(=O)N(Cc2ccc(Cl)cc2)c2ccc([N+](=O)[O-])cc21 | inactive |
| O=[N+]([O-])c1ccc(S(=O)(=O)Nc2cccc(-c3ccc(N4CCOCC4)nn3)c2)cc1 | inconclusive [activator, partial curve] |
| Cc1ccccc1NC(=O)Cc1nnc(SCC(=O)Nc2ccccc2)n1C | inactive |
| C/C(=N/NC(=O)c1ccc2c(c1)OCO2)c1ccc(NC(=O)C(F)(F)F)cc1 | inconclusive [activator, partial curve] |
| Oc1ccc(-c2nccc(-c3cccs3)n2)cc1 | inconclusive [activator, single point] |
| CC(C)CN(C)C(=O)CCc1nnc(Cc2cccc(C(F)(F)F)c2)o1 | inconclusive [activator, single point] |
| CC1CN(C(=O)c2c(Br)cnn2C)CC(C)O1 (stereo not drawn) | inactive |
| CC1(c2ccccc2)NC(=O)N(CC(=O)N(CC(=O)Nc2ccccc2C(F)(F)F)Cc2ccco2)C1=O (stereo not drawn) | inactive |
| O=C(NC1CC1)c1ccc2c(c1)ncn2C1CCCC1 | inconclusive [activator, single point] |
| COCCn1c(C)cc(C(=O)COC(=O)c2cccc(O)c2)c1C | inconclusive [activator, full curve] |
| CCOC(=O)c1ccc2nc(NC(C)=O)sc2c1 | inconclusive [activator, partial curve] |
| O=C(CSc1cccc[n+]1[O-])c1cc2ccccc2o1 | inconclusive [activator, single point] |
| COc1ccc(NC(=O)c2ccc3snnc3c2)cc1 | inconclusive [activator, partial curve] |
| O=c1oc(Nc2ccccc2Cl)nc2ccccc12 | active: 3.55 µM |
| CCOC(=O)/C(C#N)=C1/C=CN(c2ccc(C)cc2)C=N1 | inconclusive [activator, single point] |
| O=C1c2ccccc2C(=O)C1c1nccc2ccccc12 | active: 3.16 µM |
| COCCN1C(=O)/C(=C/c2ccc(N3CCCC3)cc2)SC1=S | inconclusive [activator, single point] |
| NS(=O)(=O)c1cccc(NC(=O)Cn2nc(C(=O)O)c3ccccc3c2=O)c1 | inconclusive [activator, single point] |
